The campaign covered roughly 350,000 compounds. About 260 (0.074%) were called active. The inconclusive results got no clear call from the source; some entries with a clear call stand among them for comparison. The call rests on the fitted dose curve; in most records, active means well fitted inhibition curve with a large enough effect; inconclusive means small, poorly fitted or top-dose-only effect; inactive means no such curve, though single readings can be large or run the other way. Potencies beside an inconclusive call are fits to weak or partial responses and may not hold up.
Biological target: Ferritin light chain (Equus caballus) (UniProt P02791)
Chain of UniProt P02791 (P02791 whole entry, looked up): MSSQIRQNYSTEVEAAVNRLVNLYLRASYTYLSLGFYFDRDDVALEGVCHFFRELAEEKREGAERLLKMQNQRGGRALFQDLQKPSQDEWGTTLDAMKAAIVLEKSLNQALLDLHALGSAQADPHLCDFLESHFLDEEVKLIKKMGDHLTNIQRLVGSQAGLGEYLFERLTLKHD
Assay: qHTS Assay for Identification of Novel General Anesthetics; further: nearly all actives have a fitted effect of over 20% in size
Conditions: apoferritin/1-aminoanthracene competitive binding, fluorescence; series mostly up to 77.5 µM
Summary of the method: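 Probe: 1-aminoanthracene (50% saturated, PBS). Protein: horse-spleen apoferritin, 10 uM. Incubation: 10 min, room temperature. Detection: 380 nm excitation, 535 nm emission. Analysis: normalized response, four-parameter Hill.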
Potency means the concentration at half of the fitted maximal effect; tags describe the fitted curve by direction and shape.

Potency, inconclusive:
CCCCc1c(O)nc(SCC(=O)Nc2ccc3c(c2)CCC3)[nH]c1=O 39.8 µM [inhibitor, single point], c1ccc(CSc2nnc(NC3=NCCCCC3)s2)cc1 39.8 µM [inhibitor, partial curve], O=C(NNC1=C(C(=O)C(F)(F)F)CCC1)c1ccc(Br)cc1 39.8 µM [inhibitor, partial curve], Cc1ccc(NC(=O)c2noc(C(C)C)c2[N+](=O)[O-])cc1 56.2 µM [inhibitor, partial curve, poor fit], CCN(CC)c1ccc(NC(=O)COc2ccc(C)cc2)cc1 7.94 µM [inhibitor, full curve], CCN(CC)S(=O)(=O)c1cc(-c2nn(C)c(=O)c3ccccc23)ccc1C 35.5 µM [inhibitor, partial curve], CCC(=O)OCC(=O)[C@@]1(OC(=O)CC)[C@@H](C)C[C@@H]2[C@H]3CCC4=CC(=O)C=C[C@]4(C)[C@@]3(F)[C@@H](O)C[C@@]21C 10 µM [inhibitor, partial curve], CCN(CCCNC(=O)CSc1cc(=O)n(C)c2ccccc12)c1ccccc1 10 µM [inhibitor, partial curve], O=C(Cc1ccccc1F)Nc1ccccc1-c1ccccc1 15.8 µM [inhibitor, partial curve], COc1ccc([N+](=O)[O-])cc1NC(=O)C(C)c1ccccc1 (stereo not drawn) 28.2 µM [inhibitor, partial curve], CN(C)S(=O)(=O)c1ccc(NC(=O)COC(=O)CC2CC3CCC2C3)cc1 (stereo not drawn) 25.1 µM [inhibitor, partial curve], O=C(CSCc1ccco1)Nc1cc(C(F)(F)F)ccc1N1CCOCC1 39.8 µM [inhibitor, single point]

Potency, inactive:
O=C(O)c1ccc(Nc2nc3ccccc3c3nncn23)cc1, COc1ccccc1NC(=O)C(Cc1ccccc1)NS(=O)(=O)c1ccc2c(c1)CCN2C(C)=O (stereo not drawn), CCOCCCNC(=O)c1ccc2c(c1)NC(=O)C(CS(=O)(=O)Cc1ccc(F)cc1Cl)N2 (stereo not drawn), CC1=C(C(=O)OCc2ccc3c(c2)OCO3)C(c2ccc(Cl)cc2)NC(=O)N1 (stereo not drawn), CCN1C(=O)c2cccc3c(S(=O)(=O)NC(Cc4ccccc4)C(=O)O)ccc1c23 (stereo not drawn), COc1cccc2c1cc1c(=O)n(CC(=O)N3CCN(c4ccccc4F)CC3)nc(C)n12

From PubChem BioAssay AID485281 (National Center for Advancing Translational Sciences (NCATS), 2010)
